Measured values published in publication PMC12136788.
The other results are listed elsewhere or left out.

B1: chr2:198351390:198351391:-_ENSG00000144381_ENST00000345042|hu_hu|hu_hu_hu_mus_False|18_88 (ssRNA)
RNA: GGGAGUUCUACAGUCCGACGAUCUCAUUCCCACCCUCCACAGAAAGGCUGCUUAACAACUCUCAUGUGGUGACACAGCGCUACAGUCCUGAUGCUCACAGAACAGUAGAGAUGCCUCCUCAGUGAUAGUUGAAAGCAGGACACCAACAGAGGAUUGAGCAUCA
B2: chr15:98684510:98684511:-_ENSMUSG00000048154_ENSMUST00000023741|mus_hu|FALSE|FALSE (ssRNA)
RNA: GGGAGUUCUACAGUCCGACGAUCGGCCUUUUGCAGGUAGGGGGCUUUGUCAGCUGCUGGAACCUUUCUCCAGAGCUUCAUGAUUUGUUUGCAACGGCUUGACCAGUCUGGGUAGUCUUGCUUGAGAUUAGGAAAAUUAAUGUUCAACAGAGGAUUGAGCAUCA
B3: 124814293_124814413_2385_3pUTR_ENSG00000196177_ENST00000358776|human|control|control (ssRNA)
RNA: GGGAGUUCUACAGUCCGACGAUCAUAAAGUGCAAUAACCAUGACUGAAGAAACAGUAUUCAAUUAAAAUACAGAAAUUGUCAACUGAAAAAUAGUGCAUGACAGAAUAUCCAACACUGUAUUGAAUAUUUUCUGAUUAUUAAACAACAGAGGAUUGAGCAUCA
B4: chr10:33190432:33190433:-_ENSG00000150093_ENST00000302278|hu_mus|hu_hu_hu_mus_True|28_88 (ssRNA)
RNA: GGGAGUUCUACAGUCCGACGAUCUACAUUUUCCAAACCUGCAUGUGAGUAAAACCAUGGCCACAGAGCCCCAAAACUACCCUACUGUGACUAAGAUGCUGCUGCUGUUGCAUUCAGGUUGCAAAAUCCGCCUGAGUAGGAUUCCAACAGAGGAUUGAGCAUCA
B5: chr14:76904430:76904431:+_ENSMUSG00000022010_ENSMUST00000022587|mus_hu|FALSE|FALSE (ssRNA)
RNA: GGGAGUUCUACAGUCCGACGAUCUGCAGCCAAAAACACCCUCGUGGAAAAAAAGAGGGAACACCAGCAGCCUUGUAUAAGCUAGAUAAAAUCUUCUGGCUUUCCGCAGCCCAGGGAGAAACAGAAAACGGCAGCCCUAAUUUACAACAGAGGAUUGAGCAUCA
B6: chr10:5838811:5838812:-_ENSG00000057608_ENST00000380191|hu_mus|FALSE|FALSE (ssRNA)
RNA: GGGAGUUCUACAGUCCGACGAUCAACAUUCCAGUCUCUUCCUCUUCCCAUUGAUGCUGGCGGUUGUCCUGGUAAUUUAAACCUUUUGUAUAAAUCUUCCAGCGGUGUUAUAGACGCACUUUCUCCUCCAUAGUAUGGGUUCUGCAACAGAGGAUUGAGCAUCA
B7: chr11:10818680:10818681:-_ENSG00000110321_ENST00000525681|hu_hu|motif|central (ssRNA)
RNA: GGGAGUUCUACAGUCCGACGAUCUAUAUAAAAUCAGGGCAUGAACAUGACUUGAUAAAUUAAGUAGACUUAAUUUCAAUACGGUAAUAGGAGGGACCAAUUCAAAUUCUCACCAUUUGUUUCACACCCACAAAAACCACUUCACAACAGAGGAUUGAGCAUCA
B8: chr10:94818082:94818083:+_ENSG00000138190_ENST00000260762|hu_mus|motif|central (ssRNA)
RNA: GGGAGUUCUACAGUCCGACGAUCCUACGUGUGCUGGGACAUACCAGUCACCAAGCCUCUGAGCUGUCUCACCACUGUCUCGGUCAGCUUCUGUCUGUCUCGGUCAUUCUUCCGGAACUGGGCGAAUAUGUUAUUCUUCUUGCUCAACAGAGGAUUGAGCAUCA
B9: chr2:120151847:120151848:-_ENSMUSG00000027291_ENSMUST00000028752|mus_mus|FALSE|FALSE (ssRNA)
RNA: GGGAGUUCUACAGUCCGACGAUCCUUGGACUUGAUGGUGGGAGUGCCCUCCAUGAGCGGGGAGGUGCUGGACUGGUGAUCCGAGUCAUUCAGCUUCUUUACCAACUGGCUCCGUUUCUGUGUCAGGUAGUCAAUGAGAGCUAACAACAGAGGAUUGAGCAUCA
B10: chr8:117878989:117878990:-_ENSG00000164754_ENST00000297338|hu_hu|hu_hu_hu_mus_True|28_38 (ssRNA)
RNA: GGGAGUUCUACAGUCCGACGAUCCCAGAGGCCCUCGUUUACUGAGGACAAAAUGUGCGUAGAACAUUUUUCUUAUUUGCUAUGAAAUAAGAAGAAAACCUUGCUCUCCGCUGGGAGCGGGAGGGGUGGGUGGCCCGGGGAGGGCAACAGAGGAUUGAGCAUCA
B11: chr3:10015032:10015033:+_ENSMUSG00000027533_ENSMUST00000029046|mus_mus|mus_mus_mus_hu_True|1_8 (ssRNA)
RNA: GGGAGUUCUACAGUCCGACGAUCGUUUUUACCAUCACAAGUGAUGAUACAAUCUGGCUUGGCCAUUGCGCCCAUUUUUCGCAAAGCUAUUCCCACUCCUAGCUCCUUCAUGUAUUCAUCAAAGCCUUGGCUUUCCAUCAGGCGCAACAGAGGAUUGAGCAUCA
B12: 14025072_14025192_4080_CDS_ENSMUSG00000068036_ENSMUST00000139666|mouse|control|control (ssRNA)
RNA: GGGAGUUCUACAGUCCGACGAUCACUCUUGGUCAGAGUGGAAGCAGGGGUAACUGACUUGGAAGAAUGGUUCAGGUGUUCCUGGCUGGAUGUGCUGGAUUCCACUGAGGAGCUCUGAUUGAUCCACAUAUCACUGUCACACUUCAACAGAGGAUUGAGCAUCA
B13: 80334887_80335007_2594_3pUTR_ENSG00000156052_ENST00000286548|human|control|control (ssRNA)
RNA: GGGAGUUCUACAGUCCGACGAUCAACCAAUGUUCCUGGCAGACUUCAUUGAACUUAAAGAACCACUGAGAGUAAAACUGGUUUCAAAUAAAGAGACAUAAACAGAUUUCCUGUUAAACCACACAGGAUACUUUUUACAUUGCCCAACAGAGGAUUGAGCAUCA
B14: chr10:121026873:121026874:-_ENSMUSG00000034667_ENSMUST00000039810|mus_hu|FALSE|FALSE (ssRNA)
RNA: GGGAGUUCUACAGUCCGACGAUCUCUUUUGUAGAAUACAUAUUGGCGUUGAAACAGUUUAAAGAAAUGAAAUGGCUAUCUACAAAAAGUUAGUUUUGAUUGCUGUCUUCCCCCAUACUUUGUGUCUUCACACAUAAAGAAAAUCAACAGAGGAUUGAGCAUCA
B15: chrX:100910778:100910779:-_ENSG00000184867_ENST00000356824|hu_hu|FALSE|FALSE (ssRNA)
RNA: GGGAGUUCUACAGUCCGACGAUCAACACACACUCCAGAUGUAGUGCAUAAGUAAAAAAGGGAACCUUUAUUGAAUUCUCUAUAGUUAAACACUUCUGCUCUGAGAUUGUCAUAGAUAAUCUCAAAUAGAGUAAGGGCAUUAAUCAACAGAGGAUUGAGCAUCA
B16: chr4:140556289:140556290:+_ENSMUSG00000036622_ENSMUST00000037055|mus_mus|mus_mus_mus_hu_False|18_78 (ssRNA)
RNA: GGGAGUUCUACAGUCCGACGAUCGAUGGAGCUCACCAGGCCCCCUUUUGCCGUGCAGAACCCUGUCCGGGUCACCACUGCCAGGACGUGCGGUCCCACAUAGGCCCGGGCCUGCAAAAUGAGGGUGCCGCAGAAGAGUGUGUGCAACAGAGGAUUGAGCAUCA
B17: chr17:64801638:64801639:+_ENSG00000154229_ENST00000413366|hu_mus|hu_hu_hu_mus_False|78_108 (ssRNA)
RNA: GGGAGUUCUACAGUCCGACGAUCUAUAAAUACAUAUACAUAUGUACACAUAUAUAGUAAGAGCCUAGUUAAACGUGUAAAGUAGCCAUUCAUUUUUAAAAUUACAUCUACAUUAAAAAAUUAAUAUAUCUGAUAGAGUGCCAGCAACAGAGGAUUGAGCAUCA
B18: chr21:38595834:38595835:-_ENSG00000157538_ENST00000309117|hu_hu|motif|central (ssRNA)
RNA: GGGAGUUCUACAGUCCGACGAUCCAUUAAAAAUGGUUUCUUCCUUUAAAAUUUCCCAGAAAGUGUGGCCUCUGUUUUCUGCGGCUCAGUUUAAACACAUCAUCAAGGAUAGAUAAUUAAUGUCAGGUGAGCAUAAAAGGAGAUCAACAGAGGAUUGAGCAUCA
B19: chr1:213302989:213302990:+_ENSG00000136643_ENST00000366960|hu_hu|FALSE|FALSE (ssRNA)
RNA: GGGAGUUCUACAGUCCGACGAUCAGAAGCAACAGCCCCUAGUGCUGAAGAAUCCGAAGAAAGAUUGAGACCAAAAGUUCUAAUGGGAGAAUUUUGAUUGGAAGCCAUUCCAUCAUCUAACUCAGCAAGAGAAUCCACAUCAACCAACAGAGGAUUGAGCAUCA
B20: chr5:67074945:67074946:+_ENSMUSG00000029223_ENSMUST00000031131|mus_mus|FALSE|FALSE (ssRNA)
RNA: GGGAGUUCUACAGUCCGACGAUCUCGCCCAUCGAGCUCGUACAGAUGGCCGUCCACGUUGUUGAACAGAAUAAAAUGGAAAUUCACUUUGUCAUCUACCCGACACUGGCCCUCCUGGGCCACGGAGUCAUGGGCCGCCUGGAUCAACAGAGGAUUGAGCAUCA
B21: chr7:155493584:155493585:+_ENSG00000184863_ENST00000401878|hu_hu|motif|central (ssRNA)
RNA: GGGAGUUCUACAGUCCGACGAUCUGAAAGCUCCAAAGUUUCUGGAAUGUUCCUUCUCUCUCUAGUUACAUCUGAGAGCCGGAUAAUUGUUCCUUCUUUCCUUUCAGUUUUGAAACGUAAUCGUCCAGAUUCUUCAUCAUCUUCCAACAGAGGAUUGAGCAUCA
B22: 101276289_101276409_1697_CDS_ENSG00000034677_ENST00000519449|human|control|control (ssRNA)
RNA: GGGAGUUCUACAGUCCGACGAUCUAUAUCAUUUUCAUCAUCAAAUUCAAUCCUAACUCCUUUUCCAUUGCCUGCUGAGACUCCACAACCUCCGCUUCGACAAAGAGAAAUUGGAACUACGCCAUAGACAUAAGCUAACAUAAUCAACAGAGGAUUGAGCAUCA

target: T1, UNK ZnF1-3 (human, UniProt Q9C0B0 31-174); test: nsRBNS (natural sequence RNA bind-n-seq); RBNS binding buffer (assumed for nsRBNS): 25 mM Tris pH 7.5, 150 mM KCl, 3 mM MgCl2, 0.01% Triton X-100, 500 ug/ml BSA, 20 U/ml SUPERase-In, 4 C; UNK is unkempt and MSI1 is Musashi-1; names of the RNAs are library labels; protein concentration not given here; high values mean tight binding
T1 sequence: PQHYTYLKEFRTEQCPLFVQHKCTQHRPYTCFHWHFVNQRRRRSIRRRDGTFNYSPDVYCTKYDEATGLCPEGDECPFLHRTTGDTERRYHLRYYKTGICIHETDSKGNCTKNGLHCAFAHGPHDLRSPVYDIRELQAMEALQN

First: B1
Second: B2
The binding signal of the first is higher: 0.852 enrichment R for the first, 0.786 enrichment R for the second.

Compared with B3, B4 is lower in binding signal: 1.48 enrichment R for the first, 1.01 enrichment R for the second.

Compared with B5, B6 is lower in binding signal: 2.63 enrichment R for the first, 0.747 enrichment R for the second.

First: B7
Second: B8
The binding signal of the first is higher: 1.61 enrichment R for the first, 0.438 enrichment R for the second.

First: B9
Second: B10
The binding signal of the first is lower: 0.603 enrichment R for the first, 1.25 enrichment R for the second.

Going from B11 to B12, the binding signal rises from 0.669 enrichment R to 0.874 enrichment R.

First: B13
Second: B14
The binding signal of the first is lower: 0.998 enrichment R for the first, 1.11 enrichment R for the second.

Going from B15 to B16, the binding signal rises from 0.694 enrichment R to 1.23 enrichment R.

Going from B17 to B18, the binding signal falls from 2.15 enrichment R to 1.39 enrichment R.

Compared with B19, B20 is lower in binding signal: 2.3 enrichment R for the first, 0.99 enrichment R for the second.

Compared with B21, B22 is higher in binding signal: 0.486 enrichment R for the first, 1.19 enrichment R for the second.
